Data published in patent publication US20260184738A1 (priority 2023, published 2026).

Conditions: at 100 μM

## CC(C)OC(=O)[C@H](C)N[P@](=O)(OC[C@H]1O[C@@H](n2cnc3sc(C(N)=O)c(N)c32)C(O)C1O)Oc1ccccc1 (stereo partly shown) [CEM-015]
  Toxicity in words, CHIKV row: Non-tox at 100 μM
